Test results reported in patent publication US12122821B2, “Regulation of glucose metabolism using anti-CGRP antibodies” (H. LUNDBECK A/S, priority 2013, dated 2024).

Experiments:
[1] = test system: HFD rats; test: 2-step hyperinsulinemic-euglycemic clamp in HFD rats (Example 2); format: in vivo, rat; settings: vs HFD vehicle
Method: Six-week HFD fed rats were treated for 2 weeks with Ab14, and a 2-step hyperinsulinemic euglycemic clamp was performed to assess insulin sensitivity. A physiological dose of insulin was used during the first step and a pharmacological dose of insulin was used during the second step to assess the effects of […] insulin sensitivity, respectively, under these two conditions.
Body weight and food consumption were measured 3 times per week until 10 days of treatment. HOMA-IR was measured on day 10 and 15. A 2-step clamp (5 mU/kg/min and then 15 mU/kg/min insulin) was performed on day 15 or 16. Glucose Turnover (GTO) was assessed using ^3H-glucose tracer infusion during the clamp procedure.
On day 15 or 16, the 2-step hyperinsulinemic-euglycemic clamp was performed using ^3H-glucose as a tracer (except in the normal chow group), and 5 mU/kg/min insulin infusion from 02:00 pm (T0) to 04:00 pm (T+2 h), followed by 15 mU/kg/min insulin infusion from 04:00 pm to 05:30 pm (t+3.5 h). A glucose solution was infused in parallel and the infusion rate was adjusted to reach the steady state (100±10 mg/dL). Blood glucose was measured from the tip of the tail using glucometers every 10 minutes. Blood was collected (10 μL) regularly from the tip of the tail during the steady states of each step.
The following parameters were assessed: Glucose infusion rate (in all groups); Whole body glucose utilization rate (except in the normal chow group); Hepatic glucose production rate (except in the normal chow group); Whole body glycogen and glycolytic rates (except in the normal chow group).

[2] = test system: Zucker diabetic fatty (ZDF) rat; test: Fructosamine and HbA1c in ZDF rats (Example 3); format: in vivo; settings: vs vehicle ZDF; for decrease of HbA1c: 28 days
Method: (§1) For the groups treated with AB14, the antibody was administered once weekly via the caudal vein (i.v., 5 mL/kg) on days 1, 8, 15, and 22 at two different doses 20 mg/kg/week (groups 3 and 7) or 60 mg/kg/week (groups 4 and 8). All other groups were treated once weekly with vehicle 1 (i.v., 5 mL/kg). The intravenous treatments were performed in the morning on day 1, 8, 15, and 22 while under isoflurane anaesthesia. The volume of administration was individually adapted according to the most recent body weight.
(§2) All other groups were treated daily with vehicle 2 (p.o., 5 mL/kg) for 28 days. The most recent body weight was used to calculate the average volume of administration in each group.
(§3) Fasting blood glucose (glucometers) was measured on days 0, 12, 19, and 26. Fasting plasma insulin, peptide-C (ELISA method), free fatty acids, triglycerides, total cholesterol (colorimetric method), and HDL-cholesterol (phosphotungstate precipitation, colorimetric method) were measured on day 0, and prior to dosing on days 12, 19, and day 26. Non HDL-cholesterol was calculated as total cholesterol—HDL-cholesterol. Fructosamine was measured on days 0, 19 and 28. HbA1c (DCA 2000) was measured on days 0 and 28.

[3] = test system: Zucker diabetic fatty (ZDF) rat; test: Plasma triglycerides, free fatty acids and cholesterol in ZDF rats (Example 3); format: in vivo; settings: for decrease of plasma triglycerides levels: ns
Method: as §1, §2
A fasting (6 hours on day 0 from 8:00 am to 02:00 pm, and overnight on day 12, 19 and 26 from ˜6:00 pm to ˜8:00 am) was performed before each blood collection. Blood was collected at ˜2:00 pm, from the tip of the tail, on day 0 (before screening, 150 μL, potassium EDTA), and at ˜8:00 am prior to dosing on days 12 (110 μL, potassium EDTA), 19 (150 μL, potassium EDTA) and 26, (110 μL, potassium EDTA).
as §3

[4] = 5 mU/kg/min insulin, Ab14 30 mg/kg, ns
[5] = 15 mU/kg/min insulin, Ab14 30 mg/kg
[6] = 15 mU/kg/min insulin, Ab14 100 mg/kg

B1: Ab14: humanized anti-CGRP antibody consisting of the light and heavy polypeptide chains of SEQ ID NOs 132 and 134 (protein)
light: QVLTQSPSSLSASVGDRVTINCQASQNVYNNNYLAWYQQKPGKVPKQLIYSTSTLASGVPSRFSGSGSGTDFTLTISSLQPEDVATYYCLGSYDCSRGDCFVFGGGTKVEIKRTVAAPSVFIFPPSDEQLKSGTASVVCLLNNFYPREAKVQWKVDNALQSGNSQESVTEQDSKDSTYSLSSTLTLSKADYEKHKVYACEVTHQGLSSPVTKSFNRGEC
heavy: EVQLVESGGGLVQPGGSLRLSCAVSGIGLSSYYMQWVRQAPGKGLEWVGVIGSDGKTYYATWAKGRFTISRDNSKTTVYLQMNSLRAEDTAVYFCTRGDIWGQGTLVTVSSASTKGPSVFPLAPSSKSTSGGTAALGCLVKDYFPEPVTVSWNSGALTSGVHTFPAVLQSSGLYSLSSVVTVPSSSLGTQTYICNVNHKPSNTKVDARV[here human IgG1 Fc with changes without letters]
[1]; 5 mU/kg/min insulin, Ab14 10 mg/kg, ns
  increase of mean GIR, first step: 26%
[1]; [4]
  increase of glucose turn over (GTO), first step: 17%
  increase of mean GIR, first step: 37%
[1]; 5 mU/kg/min insulin, Ab14 100 mg/kg, ns
  increase of mean GIR, first step: 29%
[1]; 5 mU/kg/min insulin, Ab14 treated groups (10, 30, 100 mg/kg), metformin 200 mg/kg/day
  GIR (plateau) during the first clamp step: Increased GIR; also recorded: slightly higher
[1]; 15 mU/kg/min insulin, Ab14 10 mg/kg
  increase of mean GIR, second step: 19%
[1]; 15 mU/kg/min insulin, Ab14 10 mg/kg, ns
  decrease of HGP, second step: 78%
[1]; [5]
  HGP, second step: completely inhibited
  increase of mean GIR, second step: 36%
[1]; [6]
  HGP, second step: completely inhibited
  increase of mean GIR, second step: 28%
[2]; AB14 20 mg/kg alone or + metformin 200 mg/kg/day
  decrease of HbA1c: no effect
[2]; AB14 60 mg/kg alone or + metformin 200 mg/kg/day
  decrease of HbA1c: no effect
[2]; AB14 20 mg/kg
  fructosamine levels: no effect
[2]; AB14 60 mg/kg
  fructosamine levels: no effect
[3]; AB14 20 mg/kg alone (vs vehicle ZDF) or with metformin (vs metformin alone)
  plasma free fatty acids levels: no effect
[3]; AB14 20 mg/kg, vs vehicle
  non HDL-cholesterol levels: no effect
[3]; AB14 20 mg/kg, vs vehicle ZDF
  plasma total cholesterol levels relative to day 0: no effect
[3]; AB14 60 mg/kg, vs vehicle
  non HDL-cholesterol levels: no effect
[3]; AB14 60 mg/kg, vs vehicle ZDF
  plasma free fatty acids levels: no effect
[3]; day 12, AB14 20 mg/kg, vs vehicle
  decrease of plasma triglycerides levels: 15%
[3]; day 12, AB14 60 mg/kg alone or + metformin, vs vehicle ZDF
  increase of total cholesterol (relative to day 0): 8%
[3]; day 12, AB14 60 mg/kg, vs vehicle
  decrease of plasma triglycerides levels: 14%
[3]; day 19, AB14 20 mg/kg, vs vehicle
  decrease of plasma triglycerides levels: 7%
[3]; day 19, AB14 60 mg/kg alone or + metformin, vs vehicle ZDF
  increase of total cholesterol (relative to day 0): 14%
[3]; day 19, AB14 60 mg/kg, vs vehicle
  decrease of plasma triglycerides levels: 9%
[3]; day 26, AB14 20 mg/kg, vs vehicle
  plasma triglycerides levels: no effect
[3]; day 26, AB14 60 mg/kg alone or + metformin, vs vehicle ZDF
  increase of total cholesterol (relative to day 0): 15%
[3]; day 26, AB14 60 mg/kg, vs vehicle
  decrease of plasma triglycerides levels: 12%

Entries after “also recorded” stand apart in the source; their conditions may differ.
